Source: PubChem BioAssay AID463173 (ICCB-Longwood Screening Facility, Harvard Medical School, 2010)
About 1,700 (3.3%) of roughly 52,000 compounds were called active. Rule as the data show it: active = survival mostly below about 52% (no sharp cut-off); inactive = mostly above about 56%. Some of the results follow.

The compounds below were run on Wild type (assay: S. aureus survival, RN4220 and DeltatarO strains – OD600, teichoic acid synthesis inhibitors, primary screen (AID 463173)). Details: S. aureus RN4220 wild type/DeltatarO growth, OD600, 18 h, active compounds read low, screened at 18.75 µg/mL (by protocol).
`Cc1cc2c(cc1C)C(c1cccc(OC(C)C)c1)CC(=O)N2` (configuration not stated) was tested, and the survival was inactive: 82%.
`CCCCN(C)CCCNC(=O)Cn1nc(CC)n2c(cc3sc(C)cc32)c1=O` was tested, and the survival was inactive: 84%.
With `CC1CN(C(=O)N2CCC(C(=O)NCCC3=CCCCC3)CC2)c2ccccc2O1` (configuration not stated) the survival was inactive: 110%.
For `COc1cc2c(=O)c(S(=O)(=O)c3ccc(C)cc3)cn(Cc3cccc(C)c3)c2cc1OC`, the survival was inactive: 101%.
With `O=C(CSc1nnc(-c2cccs2)o1)Oc1ccc(Cl)cc1` the survival was inactive: 89%.
In the case of `CCCCNC(=O)C1CCCN(c2nnc(C)c3c(C)n(-c4ccc(Cl)cc4)nc23)C1` (configuration not stated), the survival is reported as inactive: 73%.
For `CC(=O)N1CCN(c2ccc(NC(=O)COc3ccc(Cl)c(C)c3)cc2)CC1`, the survival was inactive: 106%.
`CSc1cccc(NC(=O)C2CCN(S(=O)(=O)c3ccc4[nH]c(=O)ccc4c3)CC2)c1` was tested, and the survival was inactive: 101%.
In the case of `CC(=O)c1ccc(NC(=O)CSc2nccn2Cc2ccco2)cc1`, the survival is reported as inactive: 72%.
With `CC(C)c1ccc(S(=O)(=O)Nc2ccc(O)c(Sc3nc4ccccc4s3)c2)cc1` the survival was active: 0%.
For `CCOC(=O)C1(C)C=C(Nc2ccc(C)cc2)C(=O)N1c1ccccc1` (configuration not stated), the survival was inactive: 77%.
`CCN(CC)CCN(C(=O)c1ccc(C(=O)OC)cc1)c1nc2ccc(Cl)cc2s1` was tested, and the survival was active: -6%.
With `COc1ccc(N(CC(O)CN2CCCC2)S(=O)(=O)c2ccccc2)cc1` (configuration not stated) the survival was inactive: 125%.
In the case of `CCOc1ccccc1NC(=O)c1ccc2c(c1)CCCN2S(C)(=O)=O`, the survival is reported as inactive: 84%.
In the case of `COCCNc1cc(N2CCN(C3CCCCC3)CC2)c2noc3c2c1C(=O)c1ccccc1-3`, the survival is reported as inactive: 76%.
With `COc1cccc(C(=O)N2CCC(c3nc4ccccc4s3)CC2)c1` the survival was inactive: 97%.
With `O=C(Nc1ccc2nn(-c3ccc(F)cc3)nc2c1)c1cccc2c(Cl)cccc12` the survival was inactive: 139%.
`Cc1ccc(C(=O)Nc2nnc(SCc3cc(=O)c4c(C)ccc(C)c4[nH]3)s2)cc1` was tested, and the survival was inactive: 93%.
In the case of `O=C(C1COc2ccccc2O1)N(Cc1cccnc1)c1nc2c(F)cc(F)cc2s1` (configuration not stated), the survival is reported as inactive: 67%.
In the case of `O=C(NC1CCCC1)C(c1ccccc1)N(CC1CCCO1)C(=O)Cn1nnc2ccccc21` (configuration not stated), the survival is reported as inactive: 110%.
`Cc1ccc(Cl)cc1N1CCN(C(=O)c2c(C)oc3ncnc(N4CCOCC4)c23)CC1` was tested, and the survival was inactive: 69%.
In the case of `COc1cccc(C(=O)N2CCC(N3CCN(Cc4ccc(F)cc4)C(=O)C3=O)CC2)c1`, the survival is reported as inactive: 72%.
With `COC(=O)CSc1nnc(COc2ccc(C(C)C)cc2)o1` the survival was inactive: 110%.
`CCOc1ccccc1NC(=O)c1c(NCc2ccc(OC)c(OC)c2OC)sc2c1CCC(C)C2` (configuration not stated) was tested, and the survival was inactive: 153%.
For `CCc1nnc(SCc2nc(-c3ccccc3F)oc2C)c2cc3sccc3n12`, the survival was inactive: 65%.
`COC(=O)c1cccc(Nc2c(-c3cc(Br)ccc3O)nc3nc[nH]n23)c1` was tested, and the survival was inactive: 88%.
With `Cc1ccc(OCC(=O)Nc2cccc(C(=O)OCc3cc(=O)n4cc(C)sc4n3)c2)cc1` the survival was inactive: 87%.
With `Cc1cccc(-c2noc(-c3ccc(NC4CCCC4)c([N+](=O)[O-])c3)n2)c1` the survival was inactive: 82%.
`COc1cc(OC)c(NC(=O)c2nc(-c3ccncc3)no2)cc1Cl` was tested, and the survival was inactive: 119%.
For `COc1ccc(NC(=O)CSc2nnc(-c3nnn(-c4ccc(F)cc4)c3C)o2)cc1`, the survival was inactive: 75%.
`CCCCCNC(=O)C1CCC(Cn2c(=O)c3sccc3n(CC(=O)N3CCCC3)c2=O)CC1` (configuration not stated) was tested, and the survival was inactive: 91%.
`O=C(CC1N=C2c3ccccc3N=C(SCc3cccc(Cl)c3)N2C1=O)NC1CCCCC1` (configuration not stated) was tested, and the survival was inactive: 77%.
For `CCOCN(C(=O)Cn1c(C)nc2ccccc21)c1c(C)cccc1CC`, the survival was inactive: 124%.
`COc1ccc(OCc2nnc(SCC(=O)O)n2N)cc1` was tested, and the survival was inactive: 105%.
For `Cc1cc2n(n1)CCCN2C(=O)Nc1ccccc1F`, the survival was inactive: 93%.
For `Cc1ccc(Cl)cc1-n1c(=O)cc(N2CCN(c3ccccc3)CC2)[nH]c1=O`, the survival was inactive: 90%.
With `CCc1ccccc1NC(=O)CC(C)n1nc(C)cc1C` (configuration not stated) the survival was inactive: 80%.
`CCOC(=O)c1c(S(=O)(=O)N2CCN(c3ccccc3OC)CC2)c(C)n(C)c1C` was tested, and the survival was inactive: 113%.
`COCCNC(=O)CN1CCC(NC(=O)c2ccco2)CC1` was tested, and the survival was inactive: 93%.
`Cc1ccc(N2C(=O)c3n[nH]c(C)c3C2c2ccc(C(C)C)cc2)cc1` (configuration not stated) was tested, and the survival was inactive: 31%.
For `COc1cccc(C(=O)Nc2ccccc2-c2nc(-c3ccc(C)cc3)no2)c1`, the survival was inactive: 47%.
For `OC1CCN(C(=S)Nc2ccccc2)CC1`, the survival was inactive: 108%.
With `c1ccc(N2CCN(c3ncnc4[nH]ncc34)CC2)cc1` the survival was inactive: 73%.
`CC(=O)c1cccc(NC(=O)c2sc3nc4c(cc3c2N)CCCC4)c1` was tested, and the survival was inactive: 82%.
With `COc1cc(OC)c(NC(=O)NCc2ccc3c(c2)CCN3C(C)=O)cc1Cl` the survival was inactive: 146%.
In the case of `O=C1CC(CSc2nnc(-c3ccc(Cl)cc3)n2-c2ccccc2)=NN1`, the survival is reported as inactive: 109%.
In the case of `O=c1c2cc3c(cc2n(Cc2cccc(F)c2)c(=O)n1Cc1nc(-c2ccccc2)no1)OCO3`, the survival is reported as inactive: 66%.
For `CCc1ccc(NCc2cc3ccc(OC)cc3n(CC(=O)Nc3cccc(Cl)c3C)c2=O)cc1`, the survival was inactive: 88%.
In the case of `COCCN1C(=O)c2[nH]nc(-c3c(C)cc(C)cc3O)c2C1c1cccc(O)c1` (configuration not stated), the survival is reported as inactive: 76%.
With `COc1ccc(S(=O)(=O)N(CCc2ccccc2)CC(=O)NCc2ccccc2)cc1OC` the survival was inactive: 79%.
With `CCC(C(=O)OC(C)C)n1cnc2sc3c(c2c1=O)CCC(C)C3` (configuration not stated) the survival was inactive: 71%.
With `Cc1ccc(Cl)cc1NC(=O)c1cccc(NC(=O)N2CCSc3ncccc32)c1` the survival was inactive: 111%.
`CCOc1ccc(NC(=O)C2CCCN(c3nnc(-n4c(C)ccc4C)s3)C2)cc1` (configuration not stated) was tested, and the survival was inactive: 83%.
In the case of `CCc1ccccc1N1C(=O)N(Cc2cccc(Cl)c2)c2ccccc2S1(=O)=O`, the survival is reported as inactive: 84%.
In the case of `Cn1c(C(C(=O)NCC2CCCO2)N(Cc2ccc(F)cc2)C(=O)Cn2nnc3ccccc32)nc2ccccc21` (configuration not stated), the survival is reported as inactive: 113%.
In the case of `CCCNS(=O)(=O)c1cc(-c2nnc3c4ccccc4c(C)nn23)ccc1OC`, the survival is reported as inactive: 83%.
`CC(C)(C)OC(=O)N1CCC(c2c(C(=O)N3CCN(C(=O)c4ccco4)CC3)cnn2-c2ccc(Cl)cc2)CC1` was tested, and the survival was inactive: 92%.
